In PubChem BioAssay AID588855 (National Center for Advancing Translational Sciences (NCATS), 2011):
Out of some 410,000 compounds screened, about 5,000 (1.2%) were called active. The inconclusive results got no clear call from the source; some entries with a clear call stand among them for comparison. Calls follow the shape of the dose curve; as a rule, active = well fitted inhibition curve with a large enough effect; inconclusive = small, poorly fitted or top-dose-only effect; inactive = no such curve, though single readings can be large or run the other way. A potency beside an inconclusive call is a rough fit, not a confirmed value.
Potency is read from the fitted curve at half-maximal effect; tags tell the direction and shape of the fitted curve.

Test: qHTS for Inhibitors of TGF-b; also: nearly all actives have a fitted effect of over 65% in size
Conditions: HepG2 CAGA-GFP TGF-b/SMAD3 reporter, GFP fluorescence, 18 h, TGF-beta stimulated, 500 pg/mL final; series mostly up to 46.1 µM
Method in brief: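 HEPG2 CAGA-GFP reporter cells (1000/well, DMEM with 1% FBS) received compounds, then recombinant TGF-beta at 500 pg/mL final for 18 hours at 37 degrees C. Per-cell GFP summed per well was normalised to unstimulated and stimulated DMSO controls before curve fitting.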
With `COc1ccc(C(=O)N2CC3(CC(c4cccc(NC(=O)CC(c5ccccc5)c5ccccc5)c4)=NO3)C[C@H]2C(N)=O)cc1` (some centres not stated) the Potency was inconclusive: 12.6 µM [inhibitor, single point]. In the case of `CC(O)(c1ccccc1)c1nc(-c2cccc(F)c2)cs1` (configuration not stated), the Potency is reported as inconclusive: 35.5 µM [inhibitor, single point]. In the case of `O=C(C=Cc1ccccc1F)c1ccccc1`, the Potency is reported as active: 11.2 µM. With `OCCOc1ccc(CN2CCCC(N3CCN(c4ccc(F)cc4)CC3)C2)cc1` (configuration not stated) the Potency was “inactive”. For `CC(NC(=O)/C(=C/c1ccc(OC(F)F)cc1)c1ccccc1)c1ccccc1` (configuration not stated), the Potency was inconclusive: 15.8 µM [inhibitor, single point]. For `Cc1ccc2nc(SCC(=O)c3ccc(Cl)s3)[nH]c2c1`, the Potency was “inactive”. In the case of `CCOC(=O)c1cc(S(=O)(=O)N2CCN(c3ccccc3F)CC2)[nH]n1`, the Potency is reported as “inactive”. In the case of `COc1cc(OC)c2cc(C(=O)N/N=C/c3cccc(OC)c3O)[nH]c2c1`, the Potency is reported as inconclusive: 1.78 µM [inhibitor, full curve, poor fit]. For `CCC(C)Sc1cccc(-c2nc3cnccn3c2NC2CCCCC2)c1` (configuration not stated), the Potency was inconclusive: 11.2 µM [inhibitor, partial curve, poor fit]. In the case of `O=C(CSc1nc2ccccc2c(=O)n1-c1ccccc1)N1CCc2ccccc2C1`, the Potency is reported as inconclusive: 11.2 µM [inhibitor, partial curve, poor fit]. In the case of `O=C(CCSc1ccccc1Cl)Nc1cccc([N+](=O)[O-])c1`, the Potency is reported as inconclusive: 35.5 µM [inhibitor, single point]. For `COc1cc(C(=O)OCC(=O)N(CC(C)C)C2CCS(=O)(=O)C2)cc(OC)c1C` (configuration not stated), the Potency was “inactive”. For `CCCN(CC1CC1)c1cc2c(c3c1ccn3C)C1CCC2C1` (configuration not stated), the Potency was inconclusive: 11.2 µM [inhibitor, partial curve]. For `O=C(CSC1=NCCN1)NC1CCCCCC1`, the Potency was inconclusive: 35.5 µM [inhibitor, single point]. In the case of `COc1ccc(N2CCN(CCCNC(=O)Cn3c(-c4cccs4)cc4ccccc43)CC2)cc1`, the Potency is reported as inconclusive: 12.6 µM [inhibitor, partial curve, poor fit]. For `CN(C)c1ccc(CNC(=O)C2Cc3c(-c4ccccc4Oc4ccccc4)ccnc3O2)cc1` (configuration not stated), the Potency was inconclusive: 12.6 µM [inhibitor, partial curve, poor fit]. In the case of `CCCc1ccc(OC(=O)c2ccc(O)cc2Cl)cc1`, the Potency is reported as inconclusive: 12.6 µM [inhibitor, partial curve, poor fit]. For `Cc1ccccc1C(=O)NC(=S)NC1CCS(=O)(=O)C1` (configuration not stated), the Potency was “inactive”. With `COc1ccc(C)cc1N(C)C(=O)c1c2c(nc3ccccc13)C(=O)N(C1CCCCC1)C2` the Potency was “inactive”. For `CC(C)(C)OC(=O)NS(=O)(=O)NOCc1ccccc1`, the Potency was “inactive”. In the case of `O=C(CCC(=O)Nc1ccccc1Cl)NNC(=O)C1CCCCC1`, the Potency is reported as “inactive”. For `CCOc1ccc(N(CC)S(=O)(=O)N2CCCC(C(=O)Nc3cc(Cl)ccc3OC)C2)cc1` (configuration not stated), the Potency was inconclusive: 1.58 µM [inhibitor, full curve, poor fit]. In the case of `CCN(CC(=O)NCc1ccc(Cl)cc1)C(=O)c1ccc(S(=O)(=O)NCc2ccco2)cc1`, the Potency is reported as “inactive”. In the case of `O=C(NCC1CC1)c1ccc2c3n(nc2c1)-c1ccc(Cl)cc1CO3`, the Potency is reported as inconclusive: 0.282 µM [inhibitor, full curve, poor fit]. With `Cc1ccc(C(=O)NCC(=O)OCCOc2cccc(Cl)c2)cc1` the Potency was inconclusive: 35.5 µM [inhibitor, single point]. For `CC1(C)Cc2cccc(OCC(=O)N3CCN(c4cccc(C(F)(F)F)c4)CC3)c2O1`, the Potency was inconclusive: 0.447 µM [inhibitor, full curve, poor fit]. With `CCOc1ccc(Cl)cc1-c1cc(C(=O)NCc2cccc(C(F)(F)F)c2)[nH]n1` the Potency was inconclusive: 14.1 µM [inhibitor, single point]. For `CC(C)(C)OC(=O)NC1CNNC1=O` (configuration not stated), the Potency was inconclusive: 5.62 µM [inhibitor, single point]. In the case of `O=C(NC(=S)Nc1ccccc1N1CCOCC1)c1ccc(-c2ccccc2F)o1`, the Potency is reported as “inactive”. In the case of `Cc1ccc(S(=O)(=O)NC(C)(C)CSc2nnc(N)s2)cc1`, the Potency is reported as inconclusive: 3.98 µM [inhibitor, single point]. In the case of `O=C(Cc1ccc(Br)cc1)Nc1ccccc1N1CCCC1`, the Potency is reported as inconclusive: 35.5 µM [inhibitor, single point]. For `O=C(Nc1ccc(NC(=O)c2cccnc2Cl)cc1)c1cccc(Cl)c1`, the Potency was “inactive”. With `Cc1cccc(N2CCN(C(=O)C3COc4ccccc4O3)CC2)c1C` (configuration not stated) the Potency was active: 11.2 µM. For `OCCCn1c(C2CCCN2c2nc(-c3ccc(Cl)cc3)cs2)nc2cc(Cl)c(Cl)cc21` (configuration not stated), the Potency was inconclusive: 10 µM [inhibitor, partial curve, poor fit]. In the case of `COc1cccc(CNC(=S)Nc2ccc3c(c2)c(=O)n(C)n3Cc2csc(C)n2)c1`, the Potency is reported as inconclusive: 0.631 µM [inhibitor, partial curve, poor fit]. For `CCOc1ccc(CCN2C(=S)N([C@@H](CC(C)C)CN3CCC[C@@H]3CN3C(=S)NC[C@@H]3Cc3ccc(O)cc3)C[C@@H]2Cc2ccc(O)cc2)cc1`, the Potency was active: 11.2 µM. In the case of `O=C(CCCc1ccncc1)c1ccccc1`, the Potency is reported as inconclusive: 3.55 µM [inhibitor, full curve, poor fit]. With `CCCCN1C(C(=O)c2ccccc2)=C(OC(C)=O)c2ccccc2S1(=O)=O` the Potency was inconclusive: 17.8 µM [inhibitor, partial curve, poor fit]. In the case of `Cc1cccc(CC2CC(=O)N(CCc3ccc4c(c3)OCO4)C2=O)c1` (configuration not stated), the Potency is reported as inconclusive: 1.41 µM [inhibitor, partial curve]. For `C=CC[C@@H](CC(=O)N[C@@H](CO)Cc1ccccc1)C(=O)NC[C@H](OC(=O)[C@@H](CC=C)Cc1ccc(F)cc1)c1ccccc1`, the Potency was inconclusive: 3.16 µM [inhibitor, single point]. With `N#CCOC(=O)[C@H](Cc1c[nH]c2ccccc12)NS(=O)(=O)c1ccc(Cl)cc1` the Potency was inconclusive: 35.5 µM [inhibitor, single point]. For `O=C(CN1C(=O)CCc2cc(S(=O)(=O)N3CCOCC3)ccc21)Nc1cccc(C(F)(F)F)c1`, the Potency was inconclusive: 11.2 µM [inhibitor, single point].
